Drawing on PubChem BioAssay AID1240 (Sanford-Burnham Center for Chemical Genomics, 2008), this text covers displacement for 111 compounds.

Among all 50,000 compounds or so, about 800 (1.6%) showed an effect of 50% or more. Some of the results follow.

In this experiment the target is Bcl-2-like protein 10 (Homo sapiens) (UniProt Q9HD36). Briefly: TR3 peptide-Bcl-B binding displacers, biochemical primary FP assay, phenotype converters (AID 1240).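 Note: 0% = Bcl-B with tracer peptide and DMSO and 100% = tracer peptide lacking Bcl-B.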 As to conditions: GST-Bcl-B / FITC-TR3 peptide fluorescence polarization; stronger effect = higher value; compound at 3.75 mg/L. (In general: Fluorescence polarisation rises when a labelled molecule tumbles more slowly, as on binding a larger partner.)
UniProt Q9HD36, sequence (Q9HD36 whole entry, looked up): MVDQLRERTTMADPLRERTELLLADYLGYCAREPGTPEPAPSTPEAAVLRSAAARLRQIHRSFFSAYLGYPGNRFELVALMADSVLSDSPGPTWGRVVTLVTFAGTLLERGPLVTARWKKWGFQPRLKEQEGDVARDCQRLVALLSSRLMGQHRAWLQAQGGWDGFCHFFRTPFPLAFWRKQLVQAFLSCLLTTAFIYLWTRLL
On to `CC(C)COc1ccc(C(=O)Nc2cccc(C(F)(F)F)c2)cc1`, for which the displacement was 4.9%.

For `Clc1ccc(OCCOCCN2CCCC2)c2ccccc12`, the displacement was 6.7%.

Take `Clc1ccccc1-c1noc(C23CC4CC(CC(C4)C2)C3)n1`: the displacement is -10.2%.

On to `COc1ccc(/C=C/C(=O)Nc2ccc(OC)c(OC)c2)cc1`, for which the displacement was 4.9%.

As for `COC(=O)c1cc(-c2cccc(N)c2)nc2ccccc12`, the displacement was -13.3%.

As to `Fc1ccc(-c2nnn(Cc3nn[nH]n3)n2)cc1`, the displacement is -13.6%.

For the compound `COc1cc(/C=C2/SC(=S)NC2=O)cc(Cl)c1OCc1cccc2ccccc12`, the displacement worked out at 1.5%.

For the compound `COc1ccccc1/C=N/Nc1nc(N2CCOCC2)nc(N2CCOCC2)n1`, the displacement turned out to be 6.6%.

Turning to `O=C1CCCC(O)=C1C=NCCCn1ccnc1`, the displacement turned out to be 0.1%.

Turning to `O=[N+]([O-])c1cc(C2Nc3cccc4cccc(c34)N2)ccc1Cl`, the displacement came out at 14.4%.

Consider `O=[N+]([O-])c1ccccc1OCCOc1ncnc2ccccc12`, for which the displacement was 8.3%.

As to `Cc1nc2ccccc2n1S(=O)(=O)c1ccc(F)cc1`, the displacement was 11.2%.

On to `O=C1NC(=O)N(c2ccc(Cl)cc2)C(=O)/C1=C/c1cccs1`, for which the displacement was 15.5%.

Consider `O=C1OCC(Cn2c3ccccc3c3ccccc32)O1` (stereo unspecified), for which the displacement was -2.2%.

`CCOC(=O)c1[nH]cnc1C(=O)Nc1ccc(Br)cc1`: the displacement was found to be 19.1%.

Take `O=C(Nc1ccccc1-c1ccccc1)c1ccc(F)cc1`: the displacement came out at 7.9%.

Turning to `O=C(/C=C/c1ccc(-c2ccc(Cl)cc2)o1)c1ccccc1`, the displacement amounted to 41.8%.

In the case of `O=C(c1nn2c(c1Br)NC(c1ccccc1)CC2C(F)(F)F)N1CCOCC1` (stereo unspecified), the displacement was found to be 6.8%.

With `O=C(CN(c1cccc(Cl)c1)S(=O)(=O)c1ccccc1)NCCSc1nc2ccccc2s1`, the displacement turned out to be 13.1%.

For `C=CCN(CC=C)C(=O)c1ccccc1NC(=O)c1ccccc1C`, the displacement was -10.6%.

`Cn1ncc(Cl)c1C(=O)N(C(=O)c1c(Cl)cnn1C)c1ccccc1C(F)(F)F`: the displacement was -3.6%.

Take `O=C(O)[C@@H]1C2CCCCC2=C2CCCCC2[C@@H]1C(=O)O` (stereo partly specified): the displacement was 18.6%.

With `N#C/C(=C\c1ccc2c(c1)OCO2)C(=O)NCc1ccco1`, the displacement was -15.4%.

For the compound `CCOC(=O)CN1C(=O)C(O)(CC(=O)c2cccs2)c2ccccc21` (stereo unspecified), the displacement is -5.7%.

With `CC1(C)CC(=O)C2=C(C1)Nc1ccc3ccccc3c1C2c1ccccc1F` (stereo unspecified), the displacement is -12%.

On to `COc1cc2c(cc1OC)C(c1ccc(O)cc1)N(C1CC(=O)N(c3ccccc3)C1=O)CC2` (stereo unspecified), for which the displacement was -5.3%.

Regarding `CC(C)N1CCC(=NNC(=O)C(O)c2ccccc2)CC1` (stereo unspecified), the displacement was -4%.

In the case of `COc1ccc(C2=C/C(=C/c3ccc(OC)c(Br)c3)C(=O)O2)cc1`, the displacement turned out to be 11%.

In the case of `COc1ccc(N(CC(=O)Nc2cccc(C(F)(F)F)c2)S(C)(=O)=O)c(OC)c1`, the displacement amounted to 9.8%.

For the compound `O=C(O)c1cccc(NC(=O)c2cccc(N3C(=O)c4ccc(C(=O)Nc5cccc(C(=O)O)c5)cc4C3=O)c2)c1`, the displacement is -0.9%.

Regarding `O=c1cc(C(F)(F)F)c2ccc(OCc3ccc([N+](=O)[O-])cc3)cc2o1`, the displacement came to 3.4%.

As for `O=C(c1ccc(Cl)cc1)N(Cc1ccccc1)c1cccc([N+](=O)[O-])c1`, the displacement amounted to 7.2%.

Take `C(=N\Nc1nc(N2CCOCC2)nc(N2CCOCC2)n1)/c1ccc2ccccc2c1`: the displacement was 1.3%.

Consider `CN1CCN(Cn2c(O)c(N=NC(=O)c3ccccc3Br)c3ccccc32)CC1`, for which the displacement came to 0.3%.

For the compound `Nc1ccc2nc(SCc3ccc(F)cc3)sc2c1`, the displacement worked out at 2.7%.

In the case of `CC(=O)Nc1ccccc1NC(=O)c1ccc(C)c([N+](=O)[O-])c1`, the displacement turned out to be 0.9%.

`O=C(NCc1cccnc1)c1nn2c(C(F)(F)F)cc(-c3cccs3)nc2c1Cl`: the displacement was -5.6%.

`COc1cc(/C=C2\SC(=S)N(C)C2=O)ccc1OC(=O)c1cccc(C)c1`: the displacement was found to be 6.9%.

As to `COc1ccc([N+](=O)[O-])cc1N=Cc1c[nH]c2ccccc12`, the displacement was 3.9%.

In the case of `O=C(/C=C/c1ccccc1Cl)Nc1ccccc1[N+](=O)[O-]`, the displacement worked out at 12.3%.

Take `CC(=O)c1cccc(NC(=O)Nc2ccc(C)cc2)c1`: the displacement is -4%.

As to `COc1cccc(/C=C2/SC(=S)N(CCC(=O)Nc3nnc(C)s3)C2=O)c1`, the displacement is 12.8%.

For the compound `CCOC(=O)NC(O)C(=O)c1cccs1` (stereo unspecified), the displacement amounted to 10.8%.

Turning to `COc1ccccc1/C=C1/SC(=S)N(Cc2ccccc2)C1=O`, the displacement is 16.7%.

With `N/C(=N\OC(=O)c1cccc(F)c1)c1ccc(Br)cc1`, the displacement was determined as 6.9%.

As for `O=S(=O)(NCC(c1ccccc1)N1CCNCC1)c1ccccc1` (stereo unspecified), the displacement was 2.6%.

With `Oc1c(Br)cc(Br)cc1/C=N/c1ncn[nH]1`, the displacement is -6%.

With `Cc1ccc(N2CC(C(=O)Nc3ccccc3C(C)C)CC2=O)cc1` (stereo unspecified), the displacement was -1.4%.

Take `CSc1sc(I)cc1/C=N/NC(=O)c1nnn(-c2nonc2N)c1C`: the displacement is -1.2%.

Turning to `O=C(N/N=C\c1ccccc1)c1cncc(Br)c1`, the displacement worked out at 4.8%.

As to `CCCCn1c2ccccc2c2cc(CC(N)=O)ccc21`, the displacement is -0.4%.

Take `O=C(Sc1nc2ccccc2[nH]1)c1ccccc1`: the displacement was 9.2%.

Consider `CCOC(=O)c1cccc(NC(=O)c2ccc(OC)c(OC)c2)c1`, for which the displacement was -1.9%.

`Cc1c(Cl)cccc1N=Cc1ccc[nH]1`: the displacement was 11.3%.

As to `N/C(=N/N=C\c1cc(Br)ccc1O)c1ccccn1`, the displacement was found to be 3.7%.

As to `CCOC(=O)C1=C(c2ccccc2)N=C2SCC(=O)N2C1c1ccccc1` (stereo unspecified), the displacement is -26.1%.

Take `COc1ccc(NC(=O)C2=C(C)NC(=S)NC2c2ccc(Br)cc2)cc1` (stereo unspecified): the displacement is -9%.

In the case of `O=C(CSc1nsc(SCC(=O)Nc2ccccc2F)n1)Nc1ccccc1F`, the displacement is 13.6%.

Consider `O=C(Nc1ccc(Cl)cc1)NC1CC1`, for which the displacement was -1.5%.

In the case of `O=C(N/N=C/c1ccc(-c2ccccc2[N+](=O)[O-])o1)c1ccc([N+](=O)[O-])cc1`, the displacement was 12.9%.

`COc1ccc(N=C(C)c2cc(Cl)ccc2O)cc1`: the displacement is 17.3%.

Consider `Cc1cc(Cl)ccc1OCC(=O)Nc1cccc(-c2nc3ncccc3o2)c1`, for which the displacement turned out to be 21.4%.

For the compound `CCCS(=O)(=O)c1c(S(=O)(=O)CCC)c2c3ccccc3ccn2c1C(N)=O`, the displacement was -2.3%.

Take `O=C(CN1CCCCC1)OCC1CCCO1` (stereo unspecified): the displacement was -0.7%.

As for `CCOc1ccccc1NC(=O)CCc1ccccc1`, the displacement was -1.2%.

In the case of `CCOc1ccc(N(CC(=O)N2CCCC2)S(=O)(=O)c2ccc(Cl)cc2)cc1`, the displacement is 19.2%.

Regarding `Cc1ccc(C(=O)Nc2ccccc2Br)cc1`, the displacement was 0.1%.

On to `COC(=O)C1=C(C)NC2=C(C(=O)CC(c3ccc4c(c3)OCO4)C2)C1c1ccc(Br)cc1` (stereo unspecified), for which the displacement is -21.9%.

Consider `Cc1ccc(S(=O)(=O)N(CCO)CC(O)Cn2c3ccc(Cl)cc3c3cc(Cl)ccc32)cc1` (stereo unspecified), for which the displacement is -2.1%.

As to `O=c1c(Oc2ccc(Cl)cc2Cl)c(C(F)(F)F)oc2cc(O)ccc12`, the displacement is 3.3%.

Regarding `Cc1ccc(/C=N/NC(=O)CSc2nc3ccccc3[nH]2)o1`, the displacement is -9.4%.

`CCOC(=O)c1c(NC(=O)CSc2nc3ccccc3s2)sc2c1CCC2`: the displacement was -17.9%.

Regarding `O=C1N=C(N2CCOCC2)S/C1=C\c1cccc(O)c1`, the displacement was 13.1%.

Consider `Cc1ccc(-n2nc3cc(C)c(NC(=O)C(C)C)cc3n2)cc1`, for which the displacement was -4.7%.

Regarding `CC(=O)CC(=O)NCc1ccc(F)cc1`, the displacement was -4.8%.

As for `COc1cccc(C(=O)NN=C2CCCC2)c1`, the displacement was -7.7%.

On to `Cc1c(NC(=O)CCN2C(=O)/C(=C\c3cccs3)SC2=S)c(=O)n(-c2ccccc2)n1C`, for which the displacement was determined as 10.1%.

In the case of `Cc1cc(C)cc(OCCCCNC(C)(C)C)c1`, the displacement turned out to be 5.2%.

As for `CCCCN1C(=O)c2ccccc2S1(=O)=O`, the displacement turned out to be 0.6%.

`COc1cccc(NC(=O)COc2ccccc2C)c1`: the displacement was -12.6%.

As to `COc1ccc(CCNC(=O)c2ccc(OC)c(OC)c2)cc1`, the displacement was -2.8%.

For `CCOc1ccc(N(CC(=O)NC)S(C)(=O)=O)cc1`, the displacement is 10.7%.

`COc1ccc(C(=O)Nc2ccccc2)cc1S(N)(=O)=O`: the displacement is -8.1%.

For `CCSC1=C(C#N)C(CC(C)C)C2=C(CCCC2=O)N1` (stereo unspecified), the displacement is -6.6%.

`O=C1NC(=O)N(c2ccc(Cl)cc2)C(=O)/C1=C/c1cccc(C(F)(F)F)c1`: the displacement is -13.9%.

In the case of `Cc1cc(C)c(C(=O)/C=C/c2cccc([N+](=O)[O-])c2)cc1C`, the displacement turned out to be 2.4%.

On to `Cc1ccc(-c2cc(C(=O)N/N=C/c3ccc([N+](=O)[O-])cc3)[nH]n2)cc1`, for which the displacement is -9.4%.

As for `CCCCNCCCCCOc1c(C)cc(C)cc1C`, the displacement was -4.2%.

Take `Cn1c(=O)n(CCOc2ccc([N+](=O)[O-])cc2)c2ccccc21`: the displacement turned out to be 14.7%.

Regarding `O=C1c2cccc3cccc(c23)C(=O)N1c1nc(-c2ccccc2)cs1`, the displacement turned out to be 4.5%.

As to `COc1ccc(NC(=O)C(=O)N/N=C/c2ccc3c(c2)OCO3)cc1`, the displacement is 12.1%.

As for `Cc1c(N2C(=O)/C(=C\c3cccnc3)SC2=S)c(=O)n(-c2ccccc2)n1C`, the displacement is -0.4%.

As to `Cc1ccccc1C(=O)NNC(=O)c1ccccn1`, the displacement was -9.6%.

On to `Cc1ccc(S(=O)(=O)N(C)CCCC(=O)Nc2ccccc2C)cc1`, for which the displacement is 17.9%.

As for `O=C1NC(=O)N(c2ccccc2)C(=O)/C1=C\c1ccc(-c2cccc(C(=O)O)c2)o1`, the displacement turned out to be 15.4%.

In the case of `CCC/C(O)=C1\C(=O)CC(C)(C)CC1=Nc1ccc(C)c(C)c1`, the displacement stood at 2.6%.

As for `COc1ccc(-c2nc3cc(NC(=O)c4ccc([N+](=O)[O-])cc4)ccc3o2)cc1Cl`, the displacement came out at 24.5%.

For the compound `COc1cc(/C=C2\SC(N)=NC2=O)ccc1OCc1cccc2ccccc12`, the displacement worked out at 48.9%.

As to `Cc1ccc(C2=CC(=O)N(c3cccc(Br)c3)C2=O)cc1`, the displacement was -5.9%.

Consider `Cc1cccc(N2C(=O)NC(=O)/C(=C\c3ccc(Oc4ccc([N+](=O)[O-])cn4)cc3)C2=O)c1`, for which the displacement was determined as 1.4%.

`Cc1cc(C)c(NC(=O)c2c(-c3ccccc3)noc2C)c(C)c1`: the displacement was -3.9%.

With `CC(C)C(C(=O)O)N1C(=O)/C(=C/c2ccc3c(c2)OCO3)SC1=S` (stereo unspecified), the displacement amounted to 0.5%.

With `NC1=NC(=O)C(CC(=O)Nc2ccccc2F)S1` (stereo unspecified), the displacement was -6.5%.

Regarding `Cc1ccc2nc(-c3cc(NC(=S)NC(=O)c4ccco4)ccc3Cl)oc2c1`, the displacement was determined as 28.2%.

As to `COc1ccc2c(c1)nc(SCc1ccc(Cl)cc1)n2C`, the displacement came to 1.6%.

As for `COc1cc(/C=C(\C#N)c2nc3ccccc3[nH]2)ccc1OCC(=O)O`, the displacement worked out at 43.5%.

On to `O=C(O)CN1C(=O)/C(=C/C=C/c2ccccc2[N+](=O)[O-])SC1=S`, for which the displacement is 12.3%.

Turning to `Cc1cc(C)cc(N2C(=O)NC(=O)/C(=C\c3ccc(OC(C)C)cc3)C2=O)c1`, the displacement is -11.2%.

As to `COc1ccc(N(CC(=O)N(C)Cc2ccccc2)S(C)(=O)=O)c(OC)c1`, the displacement came to 6.6%.

On to `Nc1nc(-c2ccccc2)c(I)c(=O)[nH]1`, for which the displacement is -5.4%.

As to `COc1ccc2nc(Nc3nc4ccccc4c(=O)[nH]3)nc(C)c2c1`, the displacement was 3.1%.
